Measured values taken from article PMC9334274, “A unique class of Zn^2+-binding serine-based PBPs underlies cephalosporin resistance and sporogenesis in Clostridioides difficile” (Nature Communications, 2022).

Tested on: C. difficile strain R20291
Assay: Minimum inhibitory concentration (MIC) determination
Conditions: for MIC (X): C. difficile R20291, source data Fig. S3, unit not given

Row | SMILES | MIC (X) | MIC (C. difficile R20291, BHI, 37 °C, 24 h, mean of three biological replicates)
1 | CO/N=C(\C(=O)N[C@@H]1C(=O)N2C(C(=O)O)=C(/C=C\c3scnc3C)CS[C@H]12)c1csc(N)n1 [cefditoren] | 16 | 
2 | Nc1nc(/C(=N/O)C(=O)N[C@@H]2C(=O)N3C(C(=O)O)=C(/C=C4\CCN([C@@H]5CCNC5)C4=O)CS[C@H]23)ns1 [ceftobiprole] | 2 | 2 µg/mL (≈ 3.74 µM)

In brackets after ≈: the same amount, converted by molar mass.
